The values that follow come from the supplement of paper PMC10369915.

Holding throughout (assay): enrichment score (SH2-bound / input frequency) (ratio); bacterial display of known human phosphotyrosine sites (pTyr-Var adds point mutants) read by sequencing; higher = stronger binding; tyrosines were phosphorylated by kinases first
Common to all, as to conditions: peptide library: pTyr-Var

Test [1] concerns the target SHP2 C-SH2 domain E139D.
Test [2] deals with SHP2 C-SH2 domain wild-type.
Test [3] concerns the target SHP2 N-SH2 domain L43F.
For test [4], the target named is SHP2 N-SH2 domain T42A.
In test [5] the target is SHP2 N-SH2 domain T52S.
In test [6] the target is SHP2 N-SH2 domain wild-type.

The other results are listed elsewhere or left out. Cut-off read from the data, not from the text of the source: active = 3.2 or more and inactive = the rest. The signal is at background level for most entries.
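Note: displayed peptides selected on beads carrying the immobilized SH2 domain, with library peptides lacking any tyrosine serving as negative controls.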

Turning to HNGDRYFKGIV [DCX_Y64_R59H], the enrichment score in test [1] is inactive: 0.777; in test [2] it was inactive: 0.624; in test [3] it was inactive: 0.694; in test [4], inactive: 0.602; in test [5] it was inactive: 0.659; in test [6], inactive: 0.887.
Regarding PQGVRYTFTID [DCX_Y103_I104T_YF], the enrichment score in test [1] was inactive: 1.48; in test [2], inactive: 1.3; in test [3], inactive: 1.39; in test [4], inactive: 1.83; in test [5], inactive: 1.27; in test [6], inactive: 1.13.
Consider PQAVRYIFTID [DCX_Y103_G100A_YF], for which the enrichment score in test [1] was inactive: 1.86; in test [2] it was inactive: 1.89; in test [3] it was inactive: 1.67; in test [4], inactive: 2.31; in test [5], inactive: 2.16; in test [6] it was inactive: 1.95.
In the case of AARVSYWLASG [DCHS1_Y1582_R1583W], the enrichment score is inactive: 0.732 in test [1]; inactive: 0.954 in test [2]; inactive: 0.796 in test [3]; inactive: 0.721 in test [4]; inactive: 0.926 in test [5]; inactive: 1.02 in test [6].
Regarding PQGVRYIYTID [DCX_Y103], the enrichment score is inactive: 1.76 in test [1]; active: 4.56 in test [2]; inactive: 1.41 in test [3]; inactive: 2.71 in test [4]; inactive: 1.27 in test [5]; inactive: 1.12 in test [6].
In the case of PQGVSYIYTID [DCX_Y103_R102S], the enrichment score in test [1] was inactive: 1.58; in test [2], active: 4.5; in test [3] it was inactive: 1.18; in test [4], inactive: 2.65; in test [5], inactive: 0.871; in test [6], inactive: 1.12.
For SFHCSYSEIKD [DCLRE1C_Y322_S320C], the enrichment score in test [1] was inactive: 0.839; in test [2], inactive: 1.47; in test [3], inactive: 0.782; in test [4], inactive: 0.789; in test [5], inactive: 0.778; in test [6] it was inactive: 0.924.
As to PQGVRYTYTID [DCX_Y103_I104T], the enrichment score in test [1] is inactive: 0.888; in test [2], inactive: 1.76; in test [3], inactive: 0.882; in test [4] it was inactive: 1.95; in test [5], inactive: 1.04; in test [6] it was inactive: 0.877.
AARVSYRLASG [DCHS1_Y1582]: the enrichment score in test [1] was inactive: 0.518; in test [2], inactive: 0.664; in test [3] it was inactive: 0.712; in test [4], inactive: 0.441; in test [5], inactive: 0.566; in test [6], inactive: 0.84.
On to CASQLYPRHKH [DCTN4_Y263], for which the enrichment score in test [1] is inactive: 2.02; in test [2], inactive: 2.07; in test [3], inactive: 1.92; in test [4] it was inactive: 1.74; in test [5], inactive: 2.24; in test [6] it was inactive: 2.25.
Turning to PQGVRYIFTID [DCX_Y103_YF], the enrichment score in test [1] is inactive: 2.45; in test [2], inactive: 2.48; in test [3] it was inactive: 1.71; in test [4], inactive: 2.35; in test [5], inactive: 2.02; in test [6] it was inactive: 2.52.
Turning to RNGDRYFKEIV [DCX_Y64_G67E], the enrichment score in test [1] was inactive: 0.662; in test [2] it was inactive: 0.449; in test [3], inactive: 0.913; in test [4], inactive: 0.562; in test [5] it was inactive: 0.502; in test [6] it was inactive: 0.74.
Take GVRTIYTIDGS [DCLK2_Y124]: the enrichment score in test [1] was inactive: 0.75; in test [2] it was inactive: 0.639; in test [3], inactive: 0.761; in test [4], inactive: 0.726; in test [5] it was inactive: 0.705; in test [6] it was inactive: 0.616.
On to TKFRNYLIPKG [CYP2C8_Y379], for which the enrichment score in test [1] is inactive: 0.952; in test [2], inactive: 0.829; in test [3] it was inactive: 0.803; in test [4] it was inactive: 0.882; in test [5], inactive: 0.858; in test [6] it was inactive: 0.988.
In the case of FKGIVYAVSSD [DCX_Y70], the enrichment score is inactive: 0.958 in test [1]; inactive: 0.814 in test [2]; inactive: 1 in test [3]; inactive: 0.717 in test [4]; inactive: 0.852 in test [5]; inactive: 0.948 in test [6].
As for EEGESDVCSSD [DCX_Y125_Y125D], the enrichment score in test [1] is inactive: 0.397; in test [2], inactive: 0.474; in test [3] it was inactive: 0.365; in test [4], inactive: 0.389; in test [5], inactive: 0.377; in test [6] it was inactive: 0.354.
For the molecule AVRFIYTIDGS [DCX_Y105_G100A_YF], the enrichment score in test [1] is inactive: 1.09; in test [2], inactive: 1.53; in test [3], inactive: 1.5; in test [4], inactive: 1.08; in test [5], inactive: 1.22; in test [6], inactive: 1.39.
As for QDDTVYMGKVI [DCTN1_Y1244_T1249I], the enrichment score in test [1] was inactive: 0.63; in test [2], inactive: 0.81; in test [3], inactive: 1.57; in test [4], inactive: 0.881; in test [5], inactive: 0.859; in test [6], inactive: 1.65.
As for ALTRSYIRERV [CYP2C8_Y243_K247R], the enrichment score was inactive: 0.27 in test [1]; inactive: 0.263 in test [2]; inactive: 0.287 in test [3]; inactive: 0.323 in test [4]; inactive: 0.342 in test [5]; inactive: 0.365 in test [6].
